Measured values published in PMC6919601, “Identification of Plasmodium dipeptidyl aminopeptidase allosteric inhibitors by high throughput screening” (PLoS ONE, 2019).
Hit rate of the full screen: of about 110,000 compounds, about 230 (0.21%) showed an effect of 50% or more. Some of the results follow.

Molecular target: DPAP1 (Plasmodium falciparum, UniProt Q8IIJ9)
Assay: primary screen, percent inhibition; read by cleavage of a fluorogenic dipeptide substrate; higher = more effect of the substance
Parameters: species or system P. falciparum D10 trophozoite lysates; single well
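Note: 30 min substrate incubation versus DMSO and 10 µM JCP410 controls.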

Sequence of DPAP1 (Q8IIJ9 whole entry, looked up): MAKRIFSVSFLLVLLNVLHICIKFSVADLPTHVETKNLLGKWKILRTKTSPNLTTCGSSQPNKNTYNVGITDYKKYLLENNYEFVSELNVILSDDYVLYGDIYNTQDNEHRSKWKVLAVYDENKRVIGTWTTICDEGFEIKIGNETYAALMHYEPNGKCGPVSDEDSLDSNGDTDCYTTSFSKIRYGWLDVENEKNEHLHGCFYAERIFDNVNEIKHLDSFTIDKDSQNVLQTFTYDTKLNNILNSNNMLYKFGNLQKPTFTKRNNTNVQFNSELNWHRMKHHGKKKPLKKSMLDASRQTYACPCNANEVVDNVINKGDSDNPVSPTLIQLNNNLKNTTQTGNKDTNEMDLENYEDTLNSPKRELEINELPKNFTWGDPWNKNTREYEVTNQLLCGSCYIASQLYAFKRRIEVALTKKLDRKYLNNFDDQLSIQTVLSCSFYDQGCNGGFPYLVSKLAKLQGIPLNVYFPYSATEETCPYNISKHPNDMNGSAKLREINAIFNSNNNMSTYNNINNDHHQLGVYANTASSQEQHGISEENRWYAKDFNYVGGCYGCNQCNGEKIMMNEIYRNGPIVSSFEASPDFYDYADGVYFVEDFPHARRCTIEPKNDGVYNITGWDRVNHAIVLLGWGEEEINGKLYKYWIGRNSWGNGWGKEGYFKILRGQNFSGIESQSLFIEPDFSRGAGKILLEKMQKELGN

Compound	% Inhibition @ 10 uM
CN1C(=O)c2ccccc2C(C(=O)NCCCN2CCc3ccccc3C2)C1c1cccs1 (stereo not shown)	-5.42%
Cc1cccc(C(=O)NCc2nc3ccccc3n2Cc2ccccc2)c1	-0.551%
O=C(Cn1nc(-c2ccccc2)ccc1=O)NCc1ccc(F)cc1	-6.75%
Cc1ccc(C)c(Cn2c(C)c(CNCc3ccc(Cl)cc3)c(C(=O)O)c2C)c1	-1.92%
CC(C)CC(C(=O)NCC#N)c1cccc(-c2ccc(S(=O)(=O)NCCN(CCO)CCO)cc2)c1 (stereo not shown)	-1.41%
CCOC(=O)c1[nH]c2ccc(C)cc2c1N	-0.13%
CCc1ccc(CC)c(S(=O)(=O)Nc2ccc(O)c(C(=O)O)c2)c1	-0.123%
CC(=O)N1CCC(N(C(=O)NC2CCCC2)C(C)C)CC1	-4.68%
CC(C)N(Cc1ccccc1)C(=S)Nc1cccnc1	-4.49%
CO/C(O)=C1\C(C)=NC2=C(C(=O)CCC2)C1c1cc2c(cc1Br)OCO2 (stereo not shown)	-4.77%
CC(NCc1ccccc1)c1ccco1 (stereo not shown)	-5.07%
Cc1ccc(CNC(=O)N2CC=C(c3c[nH]c4ccccc34)CC2)cc1	4.92%
CCOC(=O)c1nnn(-c2nc(OCC)nc(N3CCOCC3)n2)c1C	-1.24%
COc1ccc2oc(=O)c(C(=O)Nc3ccccc3)cc2c1	1.35%
COC(=O)c1c(NS(=O)(=O)Cc2ccccc2)sc2c1CCCC2	-1.7%
COc1ccccc1CN1CC(C(=O)O)CC1=O (stereo not shown)	-3.12%
CSc1cccc(-n2nnc(C(N)=O)c2C)c1	3.92%
Cc1ccc(Oc2cc(-n3ncc(C#N)c3N)nc(-c3ccccc3)n2)cc1	-2.68%
CCCCN(C)C(=O)C1c2ccccc2C(=O)N(C)C1c1cn(C)c2ccccc12 (stereo not shown)	-7.27%
c1ccc(C2CC(c3cccs3)n3ncnc3N2)cc1 (stereo not shown)	3.72%
COc1ccc(OC)c(S(=O)(=O)N2Cc3ccccc3CC2C(=O)O)c1 (stereo not shown)	-4.49%
O=S(=O)(c1ccc(CCn2cnnn2)cc1)N1CCOCC1	-4.49%

Compound	% Inhibition @ 10 uM
CCCOc1ccc(C2C3=C(O)CCCC3=NC(C)=C2C(=O)Nc2ccccc2C)cc1 (stereo not shown)	7.05%
CCC(CC)C(=O)/N=C1\SC2CS(=O)(=O)CC2N1Cc1ccc(Cl)cc1 (stereo not shown)	-2.92%
CCOc1ccc(C2CC(=O)N3CN(C4CCCCC4)CSC3=C2C#N)cc1 (stereo not shown)	46.6%
Cc1ccccc1N1CCN(C(=O)c2ccccc2NC(=O)c2ccccc2C(=O)O)CC1	1.39%
CC1=C(C(=O)OCc2ccccc2)C(c2cccc(F)c2)NC(=O)N1 (stereo not shown)	1.38%
Cc1csc(NC(=O)C(=O)c2c[nH]c3ccccc23)n1	-6.59%
COc1ccc(Br)cc1CNC(=O)Cn1nc(C)n2cccc2c1=O	-0.875%
COc1ccc(CCN2C(=O)CC(NCCc3ccc(S(N)(=O)=O)cc3)C2=O)cc1OC (stereo not shown)	-6.04%
CC(NC(=O)Cn1cc2c(n1)CCCCC2)c1ccccc1 (stereo not shown)	1.8%
CCC(=O)N1C2=C(CCCC2)C(=O)NC12CCCCC2	7.95%
CCCCC12CN3CC(C)(CN(C1)C3c1ccc3c(c1)OCO3)C2=O (stereo not shown)	3.27%
CCCCCCOC(=O)Nc1nnc(CCC)s1	2.76%
Cc1nnc(N2CCN(C(=O)NCCc3ccccc3)CC2)c2nn(-c3ccccc3)c(C)c12	9.62%
O=C(NCc1ccco1)c1cnn(-c2ccc(F)cc2)c1-n1cccc1	-1.95%
CN1/C(=C/C(=O)c2ccco2)Sc2ccccc21	-1.29%
CCCOc1cccc(C2C(C(=O)c3ccc(F)cc3)=C(O)C(=O)N2Cc2ccco2)c1 (stereo not shown)	-0.766%
O=C(c1ccccc1C(=O)N1CCc2ccccc21)N1CCc2ccccc21	0.389%
O=C(NCc1ccc2c(c1)OCO2)C1CCCN1S(=O)(=O)c1cccc2nsnc12 (stereo not shown)	1.26%
CC(=O)c1cccc(NC(=O)C2C3CCC(C3=C(C)C)C2C(=O)O)c1 (stereo not shown)	-3.63%
CC(=O)Nc1c(C(=O)N2CCN(Cc3ccccc3)CC2)cnn1-c1ccccc1Cl	-4.86%
COc1ccccc1/C=C1\SC(Nc2ccc(F)cc2)=NC1=O	1.72%
CC1(C)Cc2ccccc2-c2nc3n(c(=O)c21)CCCS3	0.392%

Compound	% Inhibition @ 10 uM
NC(=O)NC(c1ccccc1)c1ccc(F)cc1 (stereo not shown)	-3.32%
CC1CCCCC1/N=C/c1c(O)[nH]c2ccccc12 (stereo not shown)	4.74%
Cn1c2c(c(=O)n(C)c1=O)C(c1ccc(Cl)cc1)C1=C(O)c3ccccc3C1=N2 (stereo not shown)	6.08%
CCn1c2ccc(F)cc2c2nnc(S)nc21	32.8%
O=C(CSc1nc2c(sc3ccccc32)c(=O)n1CCCN1CCCC1)NCC1CCCO1 (stereo not shown)	13.3%
CC(C)CNC(=O)CCn1cnc2onc(-c3ccc(F)cc3)c2c1=O	-7.65%
Cn1c2ccccc2c2cnn(CC(=O)NCc3ccc4c(c3)OCO4)c(=O)c21	-5.49%
CCOC(=O)C1=CN(C)C=C(C(=O)OCC)C1c1ccccc1Br	6.48%
N#C/C(=C\c1cccc2ccccc12)C(N)=O	3.53%
Cn1c2ccccc2c2cnn(CC(=O)NCc3ccccn3)c(=O)c21	2.99%
Cc1ccc2[nH]c3c(c2c1)CCCC3NC(N)=O (stereo not shown)	3.05%
COc1ccc(S(=O)(=O)N(C)C2CCCCC2)cc1-c1nnc2c3ccccc3c(C)nn12	-1.11%
CCOc1ccccc1C1SCC(=O)Nc2c1c(O)nn2C1CCCC1 (stereo not shown)	-0.45%
CN1C(=O)CC(C(=O)Nc2ccccc2F)S/C1=N\c1cccc(F)c1 (stereo not shown)	5.03%
Cc1cc(C)c2c(=O)n(CC(=O)NCCCSC3CCCCC3)sc2n1	17.9%
CCCOc1ccc(Oc2nc(NCC)cc(NC(C)(C)C)n2)nn1	-4.85%
Cc1ccc(C(C)C)c(OCCOCCN2CCNCC2)c1	-0.279%
CCN1C(=O)/C(=C/c2ccc(O)cc2)S/C1=N/c1ccc(OC)cc1	16.9%
CC(C)N(Cc1ccccc1)C(=O)[C@H]1[C@@H]2C[C@@H]3[C@H]1C(=O)O[C@@H]3C2	5.35%
OC1CCCCC1N1CCC(c2ccccc2)C1 (stereo not shown)	-2.91%
